Structures are written as SMILES. In all, about 310,000 compounds went through this assay and about 2,200 (0.71%) showed an effect of 50% or more. Effects have a minus sign here. Some of the results follow.

Chain of human ether-à-go-go-related gene (hERG) potassium channel (Q12809 whole entry, looked up): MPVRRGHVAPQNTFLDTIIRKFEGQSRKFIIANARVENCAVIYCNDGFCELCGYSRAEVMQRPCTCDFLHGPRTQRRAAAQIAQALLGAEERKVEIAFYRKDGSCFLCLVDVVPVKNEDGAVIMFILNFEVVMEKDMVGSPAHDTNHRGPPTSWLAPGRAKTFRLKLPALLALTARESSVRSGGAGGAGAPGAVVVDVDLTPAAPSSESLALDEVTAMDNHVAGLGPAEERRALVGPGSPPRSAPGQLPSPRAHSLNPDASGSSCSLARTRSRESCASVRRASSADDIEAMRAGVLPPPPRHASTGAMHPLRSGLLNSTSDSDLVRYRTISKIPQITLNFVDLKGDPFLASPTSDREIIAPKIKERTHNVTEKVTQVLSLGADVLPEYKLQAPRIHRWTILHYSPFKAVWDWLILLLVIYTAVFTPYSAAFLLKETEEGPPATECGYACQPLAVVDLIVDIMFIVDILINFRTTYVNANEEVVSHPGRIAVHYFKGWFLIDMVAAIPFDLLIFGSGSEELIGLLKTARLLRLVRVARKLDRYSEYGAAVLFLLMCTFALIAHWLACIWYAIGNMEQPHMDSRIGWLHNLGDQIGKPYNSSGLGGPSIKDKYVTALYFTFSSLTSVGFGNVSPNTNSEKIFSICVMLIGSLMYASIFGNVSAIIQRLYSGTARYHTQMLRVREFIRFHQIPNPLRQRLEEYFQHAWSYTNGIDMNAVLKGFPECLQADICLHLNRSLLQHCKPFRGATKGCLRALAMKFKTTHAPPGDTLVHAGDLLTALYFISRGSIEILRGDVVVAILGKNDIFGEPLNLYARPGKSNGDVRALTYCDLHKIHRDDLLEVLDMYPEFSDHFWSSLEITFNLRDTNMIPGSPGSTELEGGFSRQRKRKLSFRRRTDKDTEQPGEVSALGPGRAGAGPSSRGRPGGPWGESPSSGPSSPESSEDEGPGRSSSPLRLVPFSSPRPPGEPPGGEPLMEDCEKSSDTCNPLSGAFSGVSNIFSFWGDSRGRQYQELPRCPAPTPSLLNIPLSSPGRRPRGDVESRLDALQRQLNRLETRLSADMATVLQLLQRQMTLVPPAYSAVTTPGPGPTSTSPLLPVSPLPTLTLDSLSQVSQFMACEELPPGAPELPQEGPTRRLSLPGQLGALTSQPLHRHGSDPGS

The assay addresses human ether-à-go-go-related gene (hERG) potassium channel (human, UniProt Q12809). The assay can be described thus: primary screen, population patch clamp on CHO cells stably expressing hERG.
Take `O=C(/C=C/Nc1ccc(F)c(F)c1)c1cccs1`: the “hERG current change (%, negative = inhibition) at 1uM” value is 12.2%.

Take `CNc1ncc(C(=O)c2ccc(F)cc2)s1`: the “hERG current change (%, negative = inhibition) at 1uM” value is 6.59%.

With `O=C(CNC(=O)c1ccccc1F)c1ccc(Br)cc1`, the “hERG current change (%, negative = inhibition) at 1uM” value worked out at 10.5%.

Take `C#CCOc1ccc(C2C3=C(CC(C)(C)CC3=O)N(CC(=O)O)C3=C2C(=O)CC(C)(C)C3)cc1`: the “hERG current change (%, negative = inhibition) at 1uM” value came out at 4.6%.

As for `Cc1ccc(S(=O)(=O)CCC(=O)N(C)C2CCCCC2)cc1`, the “hERG current change (%, negative = inhibition) at 1uM” value is recorded as 19.3%.

As to `CSc1sc2ccccc2[n+]1CCCS(=O)(=O)[O-]`, the “hERG current change (%, negative = inhibition) at 1uM” value was 11.3%.

Turning to `CC(C)CCNC(=O)NC(=O)COC(=O)C1CCN(S(=O)(=O)c2ccccc2F)CC1`, the “hERG current change (%, negative = inhibition) at 1uM” value is 5.94%.

`CCn1c(SCC(=O)NCc2ccco2)nnc1-c1ccncc1`: the “hERG current change (%, negative = inhibition) at 1uM” value is given as 12.6%.

`COc1ccc(/C=C/C(=O)Nc2ccccc2Cl)cc1S(=O)(=O)N1CCOCC1`: the “hERG current change (%, negative = inhibition) at 1uM” value turned out to be 7.33%.

In the case of `O=C(CC1Nc2c3ccccc3nc(=S)n2C1=O)NC1CCCCC1` (stereo not drawn), the “hERG current change (%, negative = inhibition) at 1uM” value is recorded as 6.65%.

For the compound `CCCCn1nnnc1SCC(=O)c1ccccc1F`, the “hERG current change (%, negative = inhibition) at 1uM” value is 2.56%.

As for `O=C(c1ccc(N2CCCC2=O)cc1)N1CCN(c2ccc(Cl)cc2)CC1`, the “hERG current change (%, negative = inhibition) at 1uM” value was -8.72%.

For `Cc1ccc(S(=O)(=O)n2nc(C)c(S(=O)(=O)N3CCCCC3)c2C)cc1`, the “hERG current change (%, negative = inhibition) at 1uM” value amounted to 17.6%.

As for `Cc1cccc(C2CC(c3ccc(F)cc3)Nc3nc(N)nn32)c1` (stereo not drawn), the “hERG current change (%, negative = inhibition) at 1uM” value was -8.38%.

`CCOc1ccc(S(=O)(=O)NC(C)C(=O)NCc2cccnc2)cc1` (stereo not drawn): the “hERG current change (%, negative = inhibition) at 1uM” value is 9.46%.

As to `Cc1cc(C)cc(NC(=O)Cn2nnc(C(=O)NCc3ccco3)c2N)c1`, the “hERG current change (%, negative = inhibition) at 1uM” value stood at 12.3%.

Consider `O=C(CCc1nc2sc3c(c2c(=O)[nH]1)CCCC3)NCC(=O)Nc1ccccc1Br`, for which the “hERG current change (%, negative = inhibition) at 1uM” value worked out at 14.3%.

In the case of `C#CCOCCOCCOCCNc1nc(N2CCN(C(=O)CCCCCCCCCCNC(=O)[C@@H](CCSC)n3cc(CCO)nn3)CC2)nc(N2CCN(C(=O)CCCCCCCCCCNC(=O)[C@@H]([C@H](C)O)n3cc(C)nn3)CC2)n1`, the “hERG current change (%, negative = inhibition) at 1uM” value came out at 14.1%.

For `COc1cccc(NC(=O)CCNC(=O)Cn2ccc3ccccc3c2=O)c1`, the “hERG current change (%, negative = inhibition) at 1uM” value stood at 5.93%.

As for `CCOC(=O)c1cn(-c2ccc([N+](=O)[O-])cc2)c2cc(Cl)c([N+](=O)[O-])cc2c1=O`, the “hERG current change (%, negative = inhibition) at 1uM” value was found to be 11.8%.

In the case of `COc1cc(-c2n[nH]c(=S)n2C(C)c2ccccc2)cc(OC)c1OC` (stereo not drawn), the “hERG current change (%, negative = inhibition) at 1uM” value was found to be 12%.

For `COc1ccc(-c2ccnc3nc(-n4cccc4)nn23)cc1`, the “hERG current change (%, negative = inhibition) at 1uM” value is reported as -3.22%.

In the case of `O=C(CCCc1nc2ccccc2s1)NCc1cccnc1`, the “hERG current change (%, negative = inhibition) at 1uM” value is on record as -1.72%.

Consider `COc1cc(O)c2c(=O)c(-c3ccc(O[C@@H]4O[C@H](CO)[C@@H](O)[C@H](O)[C@H]4O)cc3)coc2c1`, for which the “hERG current change (%, negative = inhibition) at 1uM” value stood at 11.9%.

`COCc1ccccc1Cn1cnc2c1c(=O)n(C)c(=O)n2C`: the “hERG current change (%, negative = inhibition) at 1uM” value stood at 10.8%.

As to `CC(Oc1ccc(Cl)cc1Cl)C(=O)OCC(=O)c1c(N)n(C)c(=O)n(C)c1=O` (stereo not drawn), the “hERG current change (%, negative = inhibition) at 1uM” value is -57.5%.

Regarding `OCCC1CN(Cc2cccc(F)c2F)CCN1CCc1ccccc1` (stereo not drawn), the “hERG current change (%, negative = inhibition) at 1uM” value was -13.8%.

Consider `CCOc1ccc(CNC(=O)CCS(=O)(=O)Cc2ccccc2C)cc1OC`, for which the “hERG current change (%, negative = inhibition) at 1uM” value was determined as 13.7%.

For the compound `COc1ccc(CN(C(=S)Nc2ccccc2)C2CC(=O)N(c3ccc(F)cc3)C2=O)cc1` (stereo not drawn), the “hERG current change (%, negative = inhibition) at 1uM” value is reported as 15%.

As for `CC(c1ccccc1)N1C(=O)c2ccccc2C1O` (stereo not drawn), the “hERG current change (%, negative = inhibition) at 1uM” value is 2.24%.

`O=C(c1cnn2c(C(F)(F)F)cc(-c3ccc4c(c3)OCO4)nc12)N1CCCC1`: the “hERG current change (%, negative = inhibition) at 1uM” value was 2.46%.

As to `COCCCOc1ccnc(CS(=O)c2nc3ccccc3[nH]2)c1C` (stereo not drawn), the “hERG current change (%, negative = inhibition) at 1uM” value is listed as 10.9%.

`COC(=O)C1=C(c2ccc(C(C)=O)cc2)C[C@@H]2CC[C@H]1N2C(=O)NCc1ccc(F)cc1`: the “hERG current change (%, negative = inhibition) at 1uM” value is on record as -6.42%.

On to `COc1cc(C)nc2nc(SCc3ccccc3)nn12`, for which the “hERG current change (%, negative = inhibition) at 1uM” value was determined as 11.5%.

Consider `CC1=Nc2ccccc2/C1=C\c1nc(-c2ccccc2)oc1O`, for which the “hERG current change (%, negative = inhibition) at 1uM” value is given as 14.9%.

Turning to `CCOC(=O)N1CCN(S(=O)(=O)c2ccc(C(=O)N(CCN(CC)CC)c3nc4c(C)cccc4s3)cc2)CC1.Cl`, the “hERG current change (%, negative = inhibition) at 1uM” value is 5.11%.

For the compound `COc1ccc(C(C)NC(=O)Cc2ccc(Br)cc2)cc1` (stereo not drawn), the “hERG current change (%, negative = inhibition) at 1uM” value was 10.8%.

For `COC(=O)c1cc(-c2ccc(Br)cc2)n[nH]1`, the “hERG current change (%, negative = inhibition) at 1uM” value came out at 13.4%.

Consider `CC(=O)OC1CC(C)(C)N(OC(=O)c2ccccc2)C(C)(C)C1`, for which the “hERG current change (%, negative = inhibition) at 1uM” value came to 9.91%.

As for `O=C(Cc1ccccc1)Nc1ccnn1C1CCN(Cc2nccs2)CC1`, the “hERG current change (%, negative = inhibition) at 1uM” value was determined as 9.91%.

Regarding `C(=N/Nc1cc(N2CCOCC2)nc(N2CCOCC2)n1)/c1ccccc1`, the “hERG current change (%, negative = inhibition) at 1uM” value was -7.51%.

Consider `COc1ccccc1CNC(=O)CSc1nc(N)c(C#N)c(-c2cccs2)c1C#N`, for which the “hERG current change (%, negative = inhibition) at 1uM” value was determined as 7.57%.

Take `Cn1cnc(S(=O)(=O)Nc2ccc3c(c2)OCCO3)c1`: the “hERG current change (%, negative = inhibition) at 1uM” value turned out to be 12.7%.

Regarding `COc1ccc(-c2noc(C(C)NS(=O)(=O)c3ccc(NC(C)=O)cc3)n2)cc1` (stereo not drawn), the “hERG current change (%, negative = inhibition) at 1uM” value is 15.7%.

In the case of `Cl.O=C(COc1ccc(Cl)cc1)NC1CN2CCC1CC2` (stereo not drawn), the “hERG current change (%, negative = inhibition) at 1uM” value is -10.3%.

As to `CCOc1ccc(S(=O)(=O)NCCC(=O)NCCc2ccc(C(C)C)cc2)cc1`, the “hERG current change (%, negative = inhibition) at 1uM” value amounted to 13.9%.

As to `CC(C)CNC(=O)C1CCN(c2ccc(S(=O)(=O)N3CCOCC3)cc2Cl)CC1`, the “hERG current change (%, negative = inhibition) at 1uM” value is -3.2%.

In the case of `Cc1cc(C)n(-c2ccc(N3CCOCC3)nn2)n1`, the “hERG current change (%, negative = inhibition) at 1uM” value came to 12.2%.

For the compound `Cc1ccccc1NC(=O)CC1(c2ccc(N(C)C)cc2)C(=O)c2ccccc2C1=O`, the “hERG current change (%, negative = inhibition) at 1uM” value worked out at 10.3%.

Turning to `O=C(COC(=O)COc1ccc(Nc2ccccc2)cc1)NCc1ccco1`, the “hERG current change (%, negative = inhibition) at 1uM” value amounted to 14.5%.

For the compound `O=C(/C=C/c1ccco1)Nc1ccc(N2CCCC2)cc1`, the “hERG current change (%, negative = inhibition) at 1uM” value is recorded as 12.4%.

As to `C=CCn1cc(C(=O)N2CCN(c3ccccc3)CC2)c(=O)c2cc(S(=O)(=O)N3CCCC3)ccc21`, the “hERG current change (%, negative = inhibition) at 1uM” value is 18.7%.

For `CC(=O)c1cccc(NC(=O)c2cnccn2)c1`, the “hERG current change (%, negative = inhibition) at 1uM” value was determined as 6.01%.

Consider `CCCc1nc(SCC(=O)N2CCC(Cc3ccccc3)CC2)c2c(=O)n(C)c(=O)n(C)c2n1`, for which the “hERG current change (%, negative = inhibition) at 1uM” value worked out at 2.07%.

The record behind these values is PMC4336329 (PLoS ONE, 2015).
